Measurements as given in the RNAGym collection of RNA variant scans (doi:10.7554/elife.90254).
The source gives no read counts; variants with many changes may rest on few reads.

B1: LINE1-mini (parent)
chain: GGCAGAGCUCAACACAGCGUGGCAAAGUGGCUGUGGCUAGACUGCC

Variants of: B1
Assay: self-cleavage, relative activity (ratio to wild type); higher = more cleavage; in vitro, sequencing; the parent is a self-cleaving ribozyme

Variant	self-cleavage
GGCACGGCUCAAGACACCGUGGCAAAGUGGCUGUGGCUAGACUGCC	0.06
GGCAGCGCUCAACACAGCGUCGCACAGUGGCUGUGGCUAGACUGCC	0.15
GGCAGAACUCAACACACCGUGGCAAAGUGGCUGUGGUUAGACUGCC	0.19
GGCAGAGCUCAAAACAGCGUGGCAAAGUGGCUGUGGCUAUACUUUC	0.11
GGCAGGGCUCAACACAGCGUGGCAAAGUUGCUGUGGCUAGACUACC	0.08
GGUAGAGCUCAACACAGCGUGGCAAAGUGGCUGUGGCUCGACUGCG	0.04
GGAUGAGCUCAACUCAGCGUGGCAAAGUGGCUGUGGCUAGAAUGCC	0.1
GGCAGAGCUCAACACAGCGUCGCAAACUGGCUGUGGCCAGAAUGCC	0.14
GGCAGAGCUCAACACAGCGUGGCAAAGUGGCUGUGCUUACACUCCC	0.07
GGCAGAGCUCAACACUGCGUCGCAAAGUGGGUGUGGCUAGACUGCC	0.01
GGCAGAGCUUAACACAGCGUUGCAAAGUGGCUGUGGCUAGACCGCC	0.02
GGCAGAGCUCAACACAGCGUAGCAAAGUGGUUGUGGUUAGACUGCC	0.08
GGCAGAAGUCAACACAGCGUGGCAAAGUGGCUGGGGCUAGACUACC	0.07
GGCAGAGCGCAUCACCGCGUGACAAAGUGGCAGUGGCUAGACUGUC	0.01
GGCAGAGCUAACCACAGCGUGGCAAACUGGCUGUGGCUAGACUGCC	0.02
GGCAUAGCUCCACACAGCGUGGCCAAGUGGCUGUGGCUUGACUGCC	0.01
GGCAGAGCUCAACGCAGAGUGGCAAAGUGGCUGUCGCUAGACUGCC	0.01
GGCAGAGCUCAACACUGCGUGGCAAAGUGGUAGUGGCUAGACUGCC	0.61
GGUAGAGCUCAACACAGCGCGGCAAAGUGGCUGUGGCUUGACUGCC	0.11
GGCAGAGCUCAACACAGCGUGGCAAAGUUGCUGUGGCUAUACAGCC	0.08
GGAAGAGCUCAACACAGCGUGGCAACGUGGCUGUGGCUAGACUCCC	0.7
GGAAGAGCUCUACACAGCCUGGCAAAGUGGCUUUGGCUAGACCACC	0.04
GGCAGAGCUCAACACAGAGUGGCAAAGAGGGUGUGGCUAGACUGCC	0.12

Variant	self-cleavage
GGCAGAGCUAAACACAGCGUGGCAAAGUGGCCGUUGCUAGACUGCC	0.01
GGCAGAGCUCGACACAGCGUGGCAAAGUGGCUAUGGCUAGACAGCC	0.05
GGCAGAGCUCUACACAGCGUGGCAAAGUGGCUGGGGCUAGACUGGC	0.01
GGCAUAGCUCAACACUGGGUGGCAAAGUGGCUGUGGCUAGACUGCC	0.13
GGCAGAGCUCAUCACAGCGGGGCAAAGUGGCUGUGGCUAGACCACC	0.03
GGCAUGGCUCAACACAGCGUAGUAAAGUGUCUGUGGCUAGACUGCC	0.07
GGAAGAGCUCAACACACCGUGCCAAAGUGGAUGUGGCUAGAAUGCC	0.08
GGCAGAGCUCAACUCAGAGUGGCAAAGUGGCUCGGGCUAGACUGCG	0.08
GGCAGAGCUCAACACAGCGUGGCAAACUCGCUGUGGCUAUACUGCC	0.03
GGCAGAGCUUAACACAGCGUGGCAAAGGGGCUGUGGCUUGACUGCC	0.16
GGCAGAGCUCAACACAGUGUGGCAAAGUAGCUGUGGCUAGACUCCC	0.23
GGCAGAACUAACCACAGCGUGGCAAAGUGGCUGUGGCUAAACUGCC	0.01
GUCAGAGCUCAACAUAACGUGGCAAAGUGGCUGUGGCUAGACUGCC	0.02
GGCGGAGCUCAACACAGCGUGGCAAAGUGGCUGUGGCUGGACUGCA	0.01
GGGUAAGCUCAACACAGCGUGGCAAAGUGGCUGUGGCUAGACUGCC	0.37
GGCAUAGCUCAACACAGCGGGACAAAGUGGCUGUGGCUAGACUGCC	0.14
GGCAGAGUUCAACACAGCGUGGCAAAGUGCCAGUGGCUAGACUGCA	0.16
GUCAGAGCUCAACAUAGCGUGGCAAAGUGGCUGUGGCUUGACUGCC	0.03
GGCAGAGCUCAACACAGCGUGGCAAGGUGGCUAUGGGUAGACUGCC	0.02
GUCAGAACUCAACACAGUGUAGCGAAGUGACUGUGGCUAGACUGCC	0.02
GGCAGAGCUCAACUCAGCGUGGCAAAGUGGCUGUGGCGAGAUUGCC	0.03
GGCAGAGCUCAACAUAGCGGGGCAAAGUGGCUGUGGCUAACCUGCC	0.06
GGCAGAGCCCAACACAAAGUGGCAAAGUCGCUGUGGGUAGACUGCC	0

Variant	self-cleavage
GGCAGAGCUCAACACAGCGUGAUAAAGUGGCUGUGUUUAGACUGCC	0
GGCGGAGCUCAAUACAUCGUGGCAAAGUGGCUGUGGCUAGACUGCC	0.23
GGCAGAGCUUAAUACAGCGUGGCAAAGUGGCUGUGGCUAUACUGCC	0.11
GGCAGAGCUAAACACAGCGUAGCAAAGUGUCUGUGGCUAGACUGUC	0.11
GCCCGAGCUCAACCCAGCGUGGCAAAGUGGCUGUGGCUGGACUGCC	0.16
GGGAGAGCUCAACACACCGUGGAAAAGUGCCUGUUGCUAAACUGCC	0.02
GGCAGAGCUCAACACAGCGUGGCAAAGAUGCUGUGGCUCGACUCCC	0.03
GCCAUAGCUCAACACAGUGUGGCAAAGUGGCUAUGGCUAUACUGCC	0
GGCAGAGCUCAGCCCAGCGUGUCAAAGUGGCUGUGGCUAGACUGCC	0.03
GGCAGACCUCAACGCAGCCUGGCAAAGUGGCUGUGGCUAGACUGCC	0.04
CGCAGAGCUCAACACAGCGUCGCAAAGUGUCUGUGGCUAGACUGCC	0.11
GGCAGAGCUUAACACAGCGUGGUAAAGUGGCUUUGGCGGGACUGCC	0.03
GGCAUAGCUCAACUCAGCGUGGCAAAGUGGCUGUGGCUAUACUGCC	0.01
GGCAGAUCUUUAGACAGCGGGGCAAAGUGGCUGUGGCUUGAGUGCC	0.04
GGCAGUGCUCAACACAUCGUGUGAAAGUGGCUGUGGCUAGACUGCC	0.18
GGCAGAGCUCAACACAGCGUGGCAGAUUGGCUGUGGUUAGACUGCC	0.02
UUCAGAGCUUAACACAGCGUGGCAAAGUGUCUGUGGCUAUACUGCC	0.01
GGCACAGCUCAACACAGCGUGGCAAAGUUGCUAUGGCUAGACUGCC	0.14
GGAAAAGCACAACAAAGCGUGGCAGAGUGGCUCUGGCUAGAGUGCC	0.52
GGCAGAGCUCAAUACAGCGUGGCAAAGGGGCUGGGGGUAGACUGCC	0.07
GGCAGAGCUCAACACAGCGUGGCAAAGUGGCUGUCGCUAGACUCCA	0.08
GGCAGAGGUCAACACAGCGUGGCAAAGUGGCAGUAGCUAGACUGCA	0
GGCGGAGCUCAACGCAGCGUGUCAAAGUGGGUGUGGCAAGACUGCC	0.14

Variant	self-cleavage
GGCAGAGCUUAAAAGUGCGCGGCAAAGCGGCUGUGGCUAGACUGCC	0.01
GGCAUAGCUCAACACGGCGUGGCAAGGUAGCUGUGGCUAGACUGCC	0.03
GGCAGAGCUCAACACGGCGUGGCAAAGUGGCCGUCGCUAGACUGCC	0.05
GGCAGAGCUCAACACCGCGUGGCAACGUGGCUGUUUCUAGUCUGCC	0.08
GUCAGAGCUCAAAUCAGCGUGGCAAAGUGGCUGUGGAUAGAAUGCA	0.09
GGCAGAGUUAAACUCAGCGUGGCAAAGUGGCUGUGGCUAGACUGCC	0.01
UGCAGAGCUCAACACAGCGUGGCAAAGUGGCUGUGGUUGGACUGCA	0.02
GGCAGAGCUCAACACGGCGUGACAAAGUGGCUGUGUCUAGACUGCC	0.38
GACAGAGCUCAACACAGCCUGUCAAAGUGGCUGUGGCUAGACUGCC	0.07
GGCACAGCUGAACACAGCGUGGCAAAGUGACUGUCGCUAGACUGCC	0.02
GGCAGAUCUCAACACAGCGUGGCAAAUUGGCGGUGGCUAGACUGCC	0.08
GGCGGAGCUCAACACAGCGUGGUAAAGUGUCUGUGGCUAGACUGCC	0.16
GGCAGAGCUCCACACAGCGUGGCAAAGUGCCUGUGGCUAGAAGGCC	0.01
CGCAGAGCUCAACCCAGCGUGGCAAAGUGGCUGUGGCUAGCCUGCC	0.03
GGCAGAGCUCAACACAGCGUGGCAAAGUAGUUGUGUCUAGACUACC	0.03
GGCACAGCUCAUCACAGCGUGACAAAGUGCCUGUGGCUAGACUGCU	0.04
GACAGAGCUCAACACAGCGUGGCAAAGUGGCUGUGGCUCAACUGCC	0.15
GGCAGAGCUCAACACAGCUUGGCAAAGUGGCCGUGGCUAGAUUGCC	0.04
GGCAGAGCUCAACACAGCGUUGCAAAGUGGGUGUGGCUAGACUGUC	0.02
GGCAGAGCACAUCACUGCGUGGCAAAGUGGCUGUGGCUAGACUGCC	0.05
GGCAGAGCUCAAUAAAGCGUGGCAAAGUGGCUAUGGAUAGACUGCC	0.24
GGCAGAGCUCAAUACAGCGCGGCAAAGUGGCUGUGGCCAGACUGCC	0.04
GGCAGCGCUCAACAUAGCGUGGCAAAGUGGCUGUCGCUAGACUGCC	0.03

Variant	self-cleavage
GGCAGAGCCCGACACAGCGUGGCAAAUUGGCUGUGGCUAGACUGCC	0.03
GGCAGAGGUAAACACAGCGUGGCAAUGUGGCUGUGGCUAGACUGCC	0
CGAAGAGCUCAACACAGCGUGGCAAAGUGGCUGAGGCUAGACUGCC	0.04
GGUAGAGCUCAAGACUGCGUGGCAAACUGGCUGAGGCUAGACUGCC	0.08
GGCAGAGCUCAUCUCAGCGUGGCAAAGUGGCUGUGGCUCGACAGCU	0.04
GGCAGAGCUCAACUCAGCGUGGCAAAGUAGCUGUAGUUAGACUGCC	0.03
GGCAAAGCACAACACAGCGUGGCAAUGGGGCUGUGGCUAGACUGCC	0.07
GGUAGAGCUCAACACAGCGUGGGAAAUGGGCUGUGGCUAGACUGCU	0.11
GGCAGAGCUCAACAGAGCGUGGCAAAGAGGCUGAGGCUAGACUGCA	0.05
GGCUGAGCUCAACACAGCGUGGGAAAGGGGCUGUGGCUAGACUGCC	0.04
GGCAGAGCUCGACACACCGUGGCAAAGUGGCUGUGGCUUGACUGCC	0.02
GGCAGAGCUCAACACAGCGUGGCAAAGUGACUGUGGCUAGACUCCG	0.09
GGCGGAGCUCGACAAAGCGUGGCAAAGUGGCUGAGGCUAGACUGCC	0.01
GGCAGAGCUCAACACAGCGUGGCAAAGUGGAUGUUGCUAGACUGUC	0.05
GGAGGCGAUCAACCCACCGUGGCAAAGUGGAUGUGCCUAGACUGCC	0.05
GGCUGAGCUCAAAACACCGUGGCAAAGUGGCUGUGGCUAGACUGCC	0.03
GGCAGAGCUAAACACGGCGUGGCUAAGUGGCUGUGGCUAGACUGCC	0.03
GGCAGAGCUCAAGACAGCGUGGCAAAGUGGAUGUCGCUAGAAUGCC	0.04
GACAGAACUCAACACAGCGUGGCAAAGUGGCCGUGACUACACUGCC	1.35
GGAAGACCUCAACACAGCGUGACAAAGUGGCUGUGGCUCGACUGCC	0.05
